Experimental data: US20110091467A1 (CENTRE FOR ADDICTION AND MENTAL HEALTH, published 2011)

Target: T1, dopamine D2 receptor from solubilized rat striatal tissue (rat, UniProt P61169 1-444)
T1 construct: mature; Endogenous protein in a detergent extract of rat striatum, detected by Western blot with anti-D2; also called D2 receptors
Assay: GST affinity purification (pull-down), Western blot for D2 receptor

T1 sequence (P61169 whole entry): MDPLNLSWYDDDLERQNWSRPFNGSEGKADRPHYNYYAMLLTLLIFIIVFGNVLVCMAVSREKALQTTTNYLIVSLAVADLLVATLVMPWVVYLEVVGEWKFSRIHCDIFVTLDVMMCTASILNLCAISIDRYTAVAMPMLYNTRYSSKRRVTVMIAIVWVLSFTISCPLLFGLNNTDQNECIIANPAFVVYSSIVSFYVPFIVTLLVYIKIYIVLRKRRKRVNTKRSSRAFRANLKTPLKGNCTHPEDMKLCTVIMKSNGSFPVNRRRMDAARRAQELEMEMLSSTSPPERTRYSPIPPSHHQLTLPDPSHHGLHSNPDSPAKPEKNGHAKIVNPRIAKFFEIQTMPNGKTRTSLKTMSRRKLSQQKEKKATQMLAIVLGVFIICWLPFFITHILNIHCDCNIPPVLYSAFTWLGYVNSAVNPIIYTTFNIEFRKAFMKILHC

B1: GST alone (other)
chain: not shown
binding result: no binding
